Assay results reported in the RNAGym collection of RNA variant scans (doi:10.7554/elife.90254).
The source gives no read counts; variants with many changes may rest on few reads.

B1: LINE1-mini (parent)
chain: GGCAGAGCUCAACACAGCGUGGCAAAGUGGCUGUGGCUAGACUGCC

Variants of: B1
Assay: self-cleavage, relative activity (ratio to wild type); higher = more cleavage; in vitro, sequencing; the parent is a self-cleaving ribozyme

Row | Variant | self-cleavage
1 | GGCAGAUCCCAACACAGCGUGGCAAAGUGGCUGCGGCUAGACUUCG [G7U U9C U34C G44U C46G] | 0.03
2 | GGCAGAUCCCAACACAGCGAGGCAAACUGGCUGUGGCUAGACUGCC [G7U U9C U20A G27C] | 0.03
3 | GGCAGAGAUCAGCACAGCGUGUCAAAGUGGCUGUAGCUAGACUGCC [C8A A12G G22U G35A] | 0.08
4 | GGCAGAUCCCAACACAGCGUGGCAAAGUGGCUGCGGCUAGACUGCC [G7U U9C U34C] | 0.01
5 | GGCAGAGAUCACCAUAGCGUGGCAAAGUGGCUGUGGCUAGACUGCC [C8A A12C C15U] | 0.05
6 | GGCAGAGAUCCACACAGCGUGGCAAAUUGGCUGUGGAGAGACUGCC [C8A A11C G27U C37A U38G] | 0
7 | GGCAGAUCGCAACACAGCGUGCCAAAGUGGCUGUGGCUAGAAUGCC [G7U U9G G22C C42A] | 0.02
8 | GGCAGAGAUCGUCACAGCGUGGUAAAGUGGCUGUGGCGAGACUGCC [C8A A11G A12U C23U U38G] | 0
9 | GGCAGAUCUCAACACAGCGCGGCAAAGUGGCUGUGGCUUGACUGCC [G7U U20C A39U] | 0.02
10 | GGCAGAGAUCCACACAGCUUGGCACAGCGGCUGUGGAUAGACUGCC [C8A A11C G19U A25C U28C C37A] | 0.01
11 | GGCAGAUCUCAACACAGCGCGGCAAAGUGGGUGUGUCUAGAUUGCC [G7U U20C C31G G36U C42U] | 0.05
12 | GGCAGAGAUCGACAGAGCAUUGCAAAGUGGCUGUGGCUAGACUGCC [C8A A11G C15G G19A G21U] | 0.01
13 | GGCAGAUCCUAACAGAGCGUGGCAAAGUGGCUGUGGAUAGACUGCC [G7U U9C C10U C15G C37A] | 0.03
14 | GGCAGAUCUCAACACAGCGUGGCAAAGUGGCUGUGGCCAUACUGCC [G7U U38C G40U] | 0.06
15 | GGCAGAGAUCAACCCAGCGUGGCAAUUUGGCUGUGGCUAGACUUCC [C8A A14C A26U G27U G44U] | 0.12
16 | GGCAGAUCGCAACACAGAGUGGCAAAGUGGCUGUGGCUAGACUGCC [G7U U9G C18A] | 0.02
17 | GGCAGAGAUCGACACAGCGUGGCAAAGUGGCUGUGGCUAGAAUGCC [C8A A11G C42A] | 0.01
18 | GGCAGAUCCCAACACAGGGUGGCUAAGUGGCUGUGGCUAGACUGCC [G7U U9C C18G A24U] | 0.11
19 | GGCAGAGAUCCACACAGCGUGGCAACGUGGCUAUGGCAAGACUGCC [C8A A11C A26C G33A U38A] | 0.01

Row | Variant | self-cleavage
20 | GGCAGAGAUCAGCACAGCGUGGCAAAGUGGCUGUGGCUAUACUGCC [C8A A12G G40U] | 0.06
21 | GGCAGAGAUCCACACAGCGUGGAAAAAUGGCUGUGGCUAAACUGCC [C8A A11C C23A G27A G40A] | 0
22 | GGCAGAUCUCAACACAGCGAUGCAAAGUGGCUGUGGCUAGACUGCC [G7U U20A G21U] | 0.03
23 | GGCAGAGAUCACCACAGCAUGGCAAAGUGGCUGUGGCUAGGCUGCC [C8A A12C G19A A41G] | 0.04
24 | GGCAGAGAUCGAAACAGCGUGGCAAAAUGGCUGUGGCUAGACUGCC [C8A A11G C13A G27A] | 0.04
25 | GGCAGAGAUCUACACAGCGUGAAAAAGUGGCUGUGGCUAGCCUGCC [C8A A11U G22A C23A A41C] | 0.02
26 | GGCAGAGAUCACCACAGCGAGGCAAAGUGGCUGUGGCUAGACCGCC [C8A A12C U20A U43C] | 0.01
27 | GGCAGAGAUCAACCCAGCGUGGCAUAGUGGCUGUGGCUAGACUGCA [C8A A14C A25U C46A] | 0.07
28 | GGCAGAUCUCAACACAGCGGGGCCAAGUGGCUGUGGCUAGACUGCC [G7U U20G A24C] | 0.04
29 | GGCAGAGAUCAUCUCAGCGUGGCAAAGUGGCUGUGGCUAGACUGCC [C8A A12U A14U] | 0.1
30 | GGCAGAUCUCAACACAGCGUGGCAAAGUGGCUGUUGCUAGACUUCC [G7U G35U G44U] | 0.64
31 | GGCAGAUCGCACCACAGCGUGGCAAAGUGACUGUGGGUAGACUGCC [G7U U9G A12C G30A C37G] | 0
32 | GGCAGAUCACAACACAGCCUGGCAAAGCGGCUGUGGCUAGACCGCC [G7U U9A G19C U28C U43C] | 0.02
33 | GGCAGAGAUCAUCACAGCUUGGCAAAGUUGCUGUGGCUAGACUGCC [C8A A12U G19U G29U] | 0.17
34 | GGCAGAGAUCCGCACAGCUAGGCAAAGUGGCUGUCGCUAGACUGCC [C8A A11C A12G G19U U20A G35C] | 0.01
35 | GGCAGAGAUCUGCAAAGCGUGGCACAUUGGCUGUGUCUAGACUGCC [C8A A11U A12G C15A A25C G27U G36U] | 0
36 | GGCAGAGAUCCACACAGCGUAGCAAAGUGGCCGUGGCUAGACUGCC [C8A A11C G21A U32C] | 0.04
37 | GGCAGAUCUCAACACAGCGCGGCAAAGUUGCUGUGGCUAGACUGCC [G7U U20C G29U] | 0.06
38 | GGCAGAGAUCUACACAGCGUGGCAAAGUGGCUGUCGAUAGACUGCC [C8A A11U G35C C37A] | 0.01

Row | Variant | self-cleavage
39 | GGCAGAGAUCUACACAGCGUGGCAAUGUGCCUGUGGCUAGACUGCC [C8A A11U A26U G30C] | 0.01
40 | GGCAGAUCUCAACACAGCGUGGCAAAGUGGCUGUGUCUAGGCAGCC [G7U G36U A41G U43A] | 2.04
41 | GGCAGAUCUCAACACAGCGAGGCAAGGUGGCUGUGGCUACACUGCC [G7U U20A A26G G40C] | 0.07
42 | GGCAGAGAUCAGCACAGCCUGGCAAAGUGGCUGUGGCUAGACUGCC [C8A A12G G19C] | 0.05
43 | GGCAGAGAUCAUCACCGCGUGGCAAAGUGGCUGUGGCUAGACUGCC [C8A A12U A16C] | 0.11
44 | GGCAGAUCUCAACACAGCGUGGCAAAGUGGCAGUGGCUAGAAUGCC [G7U U32A C42A] | 0.16
45 | GGCAGAUCUCAACACAGCGUGGCAAAGGGGCUGUCGCGAGACAGCC [G7U U28G G35C U38G U43A] | 0.08
46 | GGCAGAGAUCGACACUGCGUGGCAAAGUGGCUGUGGCUAGACUGCC [C8A A11G A16U] | 0.03
47 | GGCAGAUCCCAACACAGCGUGGCAAUGUGGCUGUGUCUAGACUGCC [G7U U9C A26U G36U] | 0.02
48 | GGCAGAGAUCUACACAGCGUCGCGAAGUGGCUGUGGCUAGACUGCC [C8A A11U G21C A24G] | 0.02
49 | GGCAGAGAUCCACACGGAGUGGCAAAGUGGCUGUGGCUAGACUGCC [C8A A11C A16G C18A] | 0.04
50 | GGCAGAUCUCAACACAGCGUGGCAAAGUGGCUGACGCUAGACUGCC [G7U U34A G35C] | 0.02
51 | GGCAGAUCUCAACACAGCGUGGCAAAGUGGCAGUUGCUAGAGUGCC [G7U U32A G35U C42G] | 0.04
52 | GGCAGAGAUCCACACAACGUGGCAAACUGGCUGUGGCUAGACCGCC [C8A A11C G17A G27C U43C] | 0.01
53 | GGCAGAGAUCGAUACAGCGUGGCAAAGUGUCUGUGGCUAGACUGCC [C8A A11G C13U G30U] | 0.01
54 | GGCAGAGAUCUACACAGCGUGGCAAAGUGGCUGUGGCUUGAUAGCC [C8A A11U A39U C42U U43A] | 0.01
55 | GGCAGAUCACAACACAGCGUGGCAAAGUGGCUGUGGCAUGACUUCC [G7U U9A U38A A39U G44U] | 0.01
56 | GGCAGAGAUCAUCACGGCGUGGCAGAGUGGCUGUGGCUCGACUGCC [C8A A12U A16G A25G A39C] | 0.08
